{"source": "PubChem BioAssay AID686979", "about": "(National Center for Advancing Translational Sciences (NCATS), 2013)", "note": "In all, about 420,000 compounds went through this assay and about 50,000 (12%) were called active. Inconclusive means that the source gave no clear call. Such entries were picked first, then a sample of the others. The call rests on the fitted dose curve; in most records, active means well fitted inhibition curve with a large enough effect; inconclusive means small, poorly fitted or top-dose-only effect; inactive means flat fitted curve, though single readings scatter. Potencies of inconclusive entries are left out as doubtful fits. On the % scale 0 is the no-effect control and ±100 the full control effect; potency means the concentration at half of the fitted maximal effect; tags describe the fitted curve by direction and shape."}
{"experiment": "qHTS for Inhibitors of human tyrosyl-DNA phosphodiesterase 1 (TDP1): qHTS in cells in presence of CPT; further: nearly all actives have a fitted effect of over 55% in size", "details": "chicken DT40 Tdp1-/-;hTDP1 cells + 20 nM CPT, ATP luminescence, 48 h; activity change, negative = growth inhibition: at 46.2 µM (top of the series) unless noted", "procedure,_shortened": "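Chicken DT40 Tdp1-/- cells complemented with human TDP1, 400 cells/well, exposed to compounds plus 20 nM camptothecin for at least 48 h at 37 C; viability read as ATP content by CellTiter-Glo luminescence.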"}
{"smiles": "CCC1CCCCN1C(=S)NC(=O)c1cc(Br)ccc1Cl", "note": "(configuration not stated)", "Potency": "inconclusive [inhibitor, single point]"}
{"smiles": "CC(=O)N1CCN(c2ccc(NCc3ccc(C)cc3)cc2)CC1", "Potency": "inactive"}
{"smiles": "O=C(Cn1nc(-c2ccc(Cl)cc2)ccc1=O)NCCc1ccccc1", "Potency": "inconclusive [inhibitor, partial curve, poor fit]"}
{"smiles": "CCn1c(CSc2nc3ccccc3s2)nnc1SCC(=O)c1ccc(O)cc1O", "Potency": "inconclusive [inhibitor, partial curve]"}
{"smiles": "COc1cc(-c2cc(C(=O)Nc3ccc(N4CCOCC4)cc3)c3ccccc3n2)cc(OC)c1OC", "Potency": "active: 2.59 µM"}
{"smiles": "CC(C(=O)Nc1ccccc1)N1C(=O)c2ccccc2C1=O", "note": "(configuration not stated)", "Potency": "inactive"}
{"smiles": "COc1cc(OC)cc(-c2c(-c3ccsc3)c3cc(Br)ccc3n2C)c1", "Potency": "inactive"}
{"smiles": "COCCNC(=O)CCC1CCN(Cc2ccc(-c3ccccc3)cc2)CC1", "Potency": "inconclusive [inhibitor, single point]"}
{"smiles": "CCOC(=O)C1CCN(C(C(=O)NC2CCCCC2)c2ccc(OC)cc2)CC1", "note": "(configuration not stated)", "Potency": "inconclusive [inhibitor, single point]"}
{"smiles": "C/C(=N\\NC(=O)CCC(=O)NCc1ccccc1)c1ccco1", "Potency": "inactive"}
{"smiles": "Cc1c(Cl)ccc2c(C(=O)NCCCn3nccc3C)cc(-c3ccccn3)nc12", "Potency": "active: 20.6 µM"}
{"smiles": "COc1ccccc1NC(=O)c1ccc2c(c1)nnn2C", "Potency": "inactive"}
{"smiles": "COc1cccc(NC(=O)C2CCCN(S(=O)(=O)c3cccc4nsnc34)C2)c1", "note": "(configuration not stated)", "Potency": "inconclusive [inhibitor, single point]"}
{"smiles": "Cc1ccc(-n2cc(CN(C)Cc3nccn3C)c(-c3cccc(C)c3)n2)cc1", "Potency": "active: 20.6 µM"}
{"smiles": "Cc1c(Cl)cccc1NC(=S)N(CCN(C)C)C(C)c1ccco1", "note": "(configuration not stated)", "Potency": "inconclusive [inhibitor, single point]"}
{"smiles": "CCN(CC)c1ncnc2c1[nH]c1ccccc12", "Potency": "active: 18.4 µM"}
{"smiles": "CC(OC(=O)c1cc(=O)c2cc(Cl)ccc2o1)C(=O)N1CCCC1", "note": "(configuration not stated)", "Potency": "inactive"}
{"smiles": "FC(F)(F)c1cccc(-c2cn[nH]c2C2CCCN(Cc3cccn3-c3ccccn3)C2)c1", "note": "(configuration not stated)", "activity change, negative = growth inhibition": "inactive: -7.96% [at 9.04 µM]"}
{"smiles": "CCOC(=O)CCc1c(C)nc2c(c(C)nn2-c2ccc(C)cc2)c1C", "Potency": "inactive"}
{"smiles": "COc1ccc(NC(=O)CN(C)C(=O)c2cn(-c3ccccc3)nc2-c2ccc(F)cc2)cc1", "Potency": "inconclusive [inhibitor, single point]"}
{"smiles": "CC1(N=Cc2cc(Cl)ccc2O)COP(=O)(NC2CCCC2)OC1", "note": "(configuration not stated)", "Potency": "inactive"}
{"smiles": "CCOCCCn1c(SCC(=O)NC2CCCCC2)nc2ccccc2c1=O", "Potency": "inconclusive [inhibitor, single point]"}
